According to PubChem BioAssay AID1454 (National Center for Advancing Translational Sciences (NCATS), 2008):
The whole screen tested about 130,000 compounds, of which about 550 (0.42%) were called active. Inconclusive results, whose numbers are uncertain, are shown with a selection of clear calls. Calls follow the shape of the dose curve; as a rule, active = well fitted inhibition curve with a large enough effect; inconclusive = small, poorly fitted or top-dose-only effect, or effect the other way; inactive = flat fitted curve, though single readings scatter. No potency is given beside an inconclusive call; the fits are too rough.

Assay: qHTS Assay for Inhibitors of the ERK Signaling Pathway using a Homogeneous Screening Assay; Stimulation with EGF; also: nearly all actives have a fitted effect of over 55% in size;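 as to activity change, negative = inhibition: plate controls were stimulated vehicle wells for no effect and unstimulated vehicle basal for full effect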
Conditions: HEK293-V1b, EGF-stimulated phospho-ERK AlphaScreen; activity change, negative = inhibition: at the top concentration
How it was run: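 Readout: AlphaScreen signal for phosphorylated ERK in lysed HEK293 cells stably expressing V1b. Stimulus 25 nM EGF, 5 min, following 30 min compound exposure. Data scaled to DMSO basal and full EGF activation.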
Potency is read from the fitted curve at half-maximal effect; tags tell the direction and shape of the fitted curve.

SMILES	activity change, negative = inhibition	Potency
Cc1ccc(C#CC[N+]2(CC#Cc3ccc(C)cc3)CCCCC2)cc1	inactive: -1.25%	
COc1cc(CN2CCNC(=O)C2CC(=O)NCCc2ncccc2C)cc(OC)c1 (centres undefined)		inconclusive [inhibitor, single point]
Cc1cc(C)c2c(=O)n(CC(=O)NC3CCCC3)sc2n1	inactive: -6.77% [at 57.5 µM]	
COc1cc(OC)cc(C(=O)Nc2cc(-c3cn4cccnc4n3)ccc2C)c1		inconclusive [inhibitor, full curve, poor fit]
Cc1ccccc1Cn1c(=O)n(CCCC(=O)NCc2ccco2)c(=O)c2ccccc21	inactive: 1.53%	
CNC(=S)N1N=C2c3ccccc3CCC2C1c1ccccc1Cl (centres undefined)		inconclusive [inhibitor, single point]
S=c1[nH]ncn2c1cc1oc3ccccc3c12	inactive: -5.09%	
Cc1ccc(NNC(=S)Nc2ccc(C(C)C)cc2)c(C)c1		inconclusive [inhibitor, partial curve]
O=c1c(-c2cc(F)cc(F)c2)nc2cnc(N3CCOCC3)nc2n1-c1ccccc1		inconclusive [activator, partial curve]
COc1ccc(C(CC(=O)O)NC(=O)Nc2ccccc2)cc1OC (centres undefined)		inconclusive [inhibitor, single point]
CC(C)C[C@H](NC(=O)c1[nH]cnc1C(=O)N[C@@H](C)c1ccccc1)C(=O)OC(C)(C)C		inconclusive [inhibitor, single point]
Cc1ccc(NC(=O)Nc2ccccc2)cc1[N+](=O)[O-]		inconclusive [inhibitor, single point]
COc1ccc(CN(Cc2ccccn2)S(=O)(=O)c2ccc(-n3cnnn3)cc2)cc1		inconclusive [inhibitor, partial curve]
Cc1ccc2cc(CCNC(=O)CC(C)(C)C)c(=O)[nH]c2c1C	inactive: 3.59%	
CC(C)(C)c1ccc(NC(=O)COC(=O)C2(C)CC2(Cl)Cl)cc1 (centres undefined)		inconclusive [inhibitor, single point]
N#C/C(=C\c1ccc(-c2cccc([N+](=O)[O-])c2)o1)C(=O)NCCN1CCOCC1		inconclusive [inhibitor, partial curve]
Cc1cc2nc3ccc(=[N+](C)C)cc-3sc2cc1N		inconclusive [activator, full curve]
CC1=CC(C)(C)n2c(O)c(N=N)c3cc(C)cc1c32		inconclusive [inhibitor, single point]
COc1ccc(NS(=O)(=O)c2cc(NC(=O)c3ccccc3F)ccc2N2CCCC2)cc1	inactive: -8.78% [at 57.5 µM]	
CCN1C/C(=C/c2cccc([N+](=O)[O-])c2)C(=O)/C(=C/c2cccc([N+](=O)[O-])c2)C1		inconclusive [inhibitor, partial curve]
CC(=O)CCCCn1cnc2c1c(=O)n(C)c(=O)n2C		inconclusive [inhibitor, single point]
Oc1nc(Nc2ccccc2)sc1/C=C1\C=Nc2ccccc21		inconclusive [inhibitor, single point]

SMILES	activity change, negative = inhibition	Potency
CC1(C)CC(=O)C(N=Nc2cc(C(F)(F)F)ccc2Cl)=C(O)C1		inconclusive [inhibitor, single point]
O=C(NC1CCCCC1)C(c1cccnc1)N(CCc1ccccc1)C(=O)Cc1cccs1 (centres undefined)	inactive: -3.58%	
COc1ccc(N2CCN(C(=O)c3ccc(N(C)S(=O)(=O)c4ccc(C)cc4)cc3)CC2)cc1		inconclusive [inhibitor, full curve]
CC(=O)N(\C=C/C=C/C=C1\Sc2ccccc2C1=O)c1ccccc1		inconclusive [inhibitor, partial curve]
CCN(CC)C(=O)CSC(Nc1ccc(F)cc1)=C(C#N)C#N	inactive: -2.15% [at 57.5 µM]	
OC(c1cc(-c2ccc(C(F)(F)F)cc2)nc(C(F)(F)F)c1)C1CCCCN1 (centres undefined)		inconclusive [inhibitor, single point]
COCCn1c(C(=O)N2CCCC2)cc2c1C[C@H]1CN(C(=O)c3ccccc3)[C@@](Cc3ccc(OC)cc3)(C(=O)OC)[C@@H]21	inactive: -0.262%	
Cc1c(N/N=C(\C#N)C(=O)c2ccc(Cl)cc2)c(=O)n(-c2ccccc2)n1C	inactive: 10.7%	
CC(CCc1ccccc1)NC(=O)C1CCCN(c2nnc(-n3cccc3)s2)C1 (centres undefined)		inconclusive [inhibitor, single point]
COc1ccc(-c2cn[nH]c2-c2ccc(OCc3ccccc3F)cc2O)cc1OC		active: 31.6 µM
Cc1cccc(Cn2nnc3c2C(=O)c2ccccc2C3=O)c1		inconclusive [inhibitor, partial curve]
C[c-]1[c-](C)[c-](C)[c-](C)[c-]1C.[Fe].c1cc2nccc(N3CCCC3)[c-]2c1 (centres undefined)		inconclusive [inhibitor, partial curve]
CCOC(=O)C1(CCCc2ccccc2)CCN(Cc2nccn2CC)CC1		inconclusive [inhibitor, full curve, poor fit]
Fc1ccc(N2N=C(c3cccs3)CC2c2ccccc2)cc1 (centres undefined)		inconclusive [activator, partial curve]
CCOC(=O)c1cccc(NC(=O)/C=C/c2ccc([N+](=O)[O-])cc2)c1		active: 31.6 µM
CN1CCOC(=O)/C1=N/Nc1cc(Cl)ccc1Cl		inconclusive [inhibitor, single point]
Cc1c(/C=N/NC(=O)C2(O)c3ccccc3-c3ccccc32)cnn1C	inactive: 0.97%	
COc1ccc(C2N(Cc3ccccc3)CC(=O)N2/N=C(\C)c2ccccc2)cc1 (centres undefined)	inactive: -7.96%	
N#Cc1ccc(N2CCc3ccccc3C2)c([N+](=O)[O-])c1		inconclusive [inhibitor, single point]
CCOC(=O)c1c(C)cc(O)c(C=O)c1O	inactive: 3.37%	
CCOC(=O)C1CC(c2ccccc2)=NNC1=O (centres undefined)	inactive: -8.57%	
COc1ccc(CCC(=O)Nc2nc(-c3ccncc3)cs2)cc1		inconclusive [inhibitor, single point]
